# This is one part of the list.
# B1: B160 (Bifidobacterium sp) (protein)
# chain: MVSHNKRIVAALAAVAAMGIGLAGCGGSDTAGDTKSGSDGGVVNITYMHRLPDSEGMTLVNDIVAKWNKEHPNIQVKATKFDGNAADMIKKLETDVKAGNAPDLAQVGYAEVPEVFTKGLLQDVTDEAAKYKDDFASGPFALMQVDGKTYGLPQDTGPLTYFYNAAEFEKLGITVPKTADELIETAKKTAAQGKYIMTFTPDEAMMMMSGQAGASGPWYKVDGNSWVVNTQTKGSKAVADVYQQLIDNKAALTNPRWDASFDNSIQSGQLIGTVAAAWEAPLFIDSAGGTGAGEWKVTQLGDWFGNGTKTGANGGSGVAVLKGSKHPAEAMEFLDWFNTQVDDLVSQGLVVAATTADAKTPQKWSDYFSGQDVMAEFKTANDNMGDFTYMPGFSAVGAAMKQTAAKAADGSAKVSDVFDTAQKTSVDTLKNLGLSVKE
# How the values were obtained:
# Test in all cases: glycan array binding signal (z-score within array); higher = stronger binding
# Conditions in all cases: glycan notation: IUPAC condensed, linker removed
# [1] = biological target: Fuc(a1-2)[Gal(a1-3)]Gal(b1-4)GlcNAc(b1-2)Man(a1-3)[Fuc(a1-2)[Gal(a1-3)]Gal(b1-4)GlcNAc(b1-2)Man(a1-6)]Man(b1-4)GlcNAc(b1-4)[Fuc(a1-6)]GlcNAc
# Method in brief: (§1)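 The binding signal is a Z-score computed within each array and averaged over linkers. Arrays of the same protein sequence at different concentrations or buffers were also averaged together. Data originate from 3228 arrays in the Consortium for Functional Glycomics database, kept only where the protein sequence was available.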
# [2] = biological target: Fuc(a1-2)[Gal(a1-3)]Gal(b1-4)GlcNAc(b1-3)GalNAc
# Method in brief: as §1
# [3] = biological target: Fuc(a1-2)[Gal(a1-3)]Gal(b1-4)GlcNAc(b1-3)[Fuc(a1-2)[Gal(a1-3)]Gal(b1-4)GlcNAc(b1-6)]GalNAc
# Method in brief: as §1
# [4] = biological target: Fuc(a1-2)[Gal(a1-3)]Gal(b1-4)GlcNAc(b1-6)GalNAc
# Method in brief: as §1
# [5] = biological target: Fuc(a1-2)[Gal(a1-3)]Gal(b1-4)[Fuc(a1-3)]Glc
# Method in brief: as §1
# [6] = biological target: Fuc(a1-2)[Gal(a1-3)]Gal(b1-4)[Fuc(a1-3)]GlcNAc
# Method in brief: as §1
# [7] = biological target: Fuc(a1-2)[Gal(a1-3)]Gal(b1-4)[Fuc(a1-3)]GlcNAc(b1-3)GalNAc
# Method in brief: as §1
# [8] = biological target: Fuc(a1-2)[Gal(a1-4)]Gal(b1-4)GlcNAc
# Method in brief: as §1
# [9] = biological target: Fuc(a1-2)[GalNAc(a1-3)]Gal
# Method in brief: as §1
# [10] = biological target: Fuc(a1-2)[GalNAc(a1-3)]Gal(b1-3)GalNAc(a1-3)[Fuc(a1-2)]Gal(b1-4)GlcNAc
# Method in brief: as §1
# [11] = biological target: Fuc(a1-2)[GalNAc(a1-3)]Gal(b1-3)GalNAc(b1-3)Gal(a1-4)Gal(b1-4)Glc
# Method in brief: as §1
# [12] = biological target: Fuc(a1-2)[GalNAc(a1-3)]Gal(b1-3)GlcNAc
# Method in brief: as §1
# [13] = biological target: Fuc(a1-2)[GalNAc(a1-3)]Gal(b1-3)GlcNAc(b1-2)Man(a1-3)[Fuc(a1-2)[GalNAc(a1-3)]Gal(b1-3)GlcNAc(b1-2)Man(a1-6)]Man(b1-4)GlcNAc(b1-4)GlcNAc
# Method in brief: as §1
# [14] = biological target: Fuc(a1-2)[GalNAc(a1-3)]Gal(b1-3)GlcNAc(b1-2)Man(a1-3)[Fuc(a1-2)[GalNAc(a1-3)]Gal(b1-3)GlcNAc(b1-2)Man(a1-6)]Man(b1-4)GlcNAc(b1-4)[Fuc(a1-6)]GlcNAc
# Method in brief: as §1
# [15] = biological target: Fuc(a1-2)[GalNAc(a1-3)]Gal(b1-3)GlcNAc(b1-3)GalNAc
# Method in brief: as §1
# [16] = biological target: Fuc(a1-2)[GalNAc(a1-3)]Gal(b1-3)GlcNAc(b1-6)GalNAc
# Method in brief: as §1
# [17] = biological target: Fuc(a1-2)[GalNAc(a1-3)]Gal(b1-4)Glc
# Method in brief: as §1
# [18] = biological target: Fuc(a1-2)[GalNAc(a1-3)]Gal(b1-4)GlcNAc
# Method in brief: as §1
# [19] = biological target: Fuc(a1-2)[GalNAc(a1-3)]Gal(b1-4)GlcNAc(b1-2)Man
# Method in brief: as §1
# [20] = biological target: Fuc(a1-2)[GalNAc(a1-3)]Gal(b1-4)GlcNAc(b1-2)Man(a1-3)[Fuc(a1-2)[GalNAc(a1-3)]Gal(b1-4)GlcNAc(b1-2)Man(a1-6)]Man(b1-4)GlcNAc(b1-4)GlcNAc
# Method in brief: as §1
# [21] = biological target: Fuc(a1-2)[GalNAc(a1-3)]Gal(b1-4)GlcNAc(b1-2)Man(a1-3)[Fuc(a1-2)[GalNAc(a1-3)]Gal(b1-4)GlcNAc(b1-2)Man(a1-6)]Man(b1-4)GlcNAc(b1-4)[Fuc(a1-6)]GlcNAc
# Method in brief: as §1
# [22] = biological target: Fuc(a1-2)[GalNAc(a1-3)]Gal(b1-4)GlcNAc(b1-3)Gal(b1-4)GlcNAc
# Method in brief: as §1
# [23] = biological target: Fuc(a1-2)[GalNAc(a1-3)]Gal(b1-4)GlcNAc(b1-3)Gal(b1-4)GlcNAc(b1-3)Gal(b1-4)GlcNAc
# Method in brief: as §1
# [24] = biological target: Fuc(a1-2)[GalNAc(a1-3)]Gal(b1-4)GlcNAc(b1-3)GalNAc
# Method in brief: as §1
# [25] = biological target: Fuc(a1-2)[GalNAc(a1-3)]Gal(b1-4)GlcNAc(b1-3)[Fuc(a1-2)[GalNAc(a1-3)]Gal(b1-4)GlcNAc(b1-6)]GalNAc
# Method in brief: as §1
# [26] = biological target: Fuc(a1-2)[GalNAc(a1-3)]Gal(b1-4)GlcNAc(b1-6)GalNAc
# Method in brief: as §1
# [27] = biological target: Fuc(a1-2)[GalNAc(a1-3)]Gal(b1-4)[Fuc(a1-3)]GlcNAc
# Method in brief: as §1
# [28] = biological target: Fuc(a1-2)[GalNAc(a1-3)]Gal(b1-4)[Fuc(a1-3)]GlcNAc(b1-3)GalNAc
# Method in brief: as §1
# [29] = biological target: Fuc(a1-2)[GalNAc(a1-4)]Gal(b1-4)GlcNAc
# Method in brief: as §1
# [30] = biological target: Fuc(a1-2)[GalNAc(b1-3)]Gal
# Method in brief: as §1
binder,measurement,setting,value
B1,glycan array binding signal (z-score),[1],-0.092
same,glycan array binding signal (z-score),[2],-0.168
same,glycan array binding signal (z-score),[3],-0.136
same,glycan array binding signal (z-score),[4],-0.163
same,glycan array binding signal (z-score),[5],-0.153
same,glycan array binding signal (z-score),[6],-0.155
same,glycan array binding signal (z-score),[7],-0.156
same,glycan array binding signal (z-score),[8],-0.15
same,glycan array binding signal (z-score),[9],-0.168
same,glycan array binding signal (z-score),[10],-0.18
same,glycan array binding signal (z-score),[11],-0.174
same,glycan array binding signal (z-score),[12],-0.167
same,glycan array binding signal (z-score),[13],-0.159
same,glycan array binding signal (z-score),[14],-0.126
same,glycan array binding signal (z-score),[15],-0.144
same,glycan array binding signal (z-score),[16],-0.147
same,glycan array binding signal (z-score),[17],-0.146
same,glycan array binding signal (z-score),[18],-0.171
same,glycan array binding signal (z-score),[19],-0.174
same,glycan array binding signal (z-score),[20],-0.127
same,glycan array binding signal (z-score),[21],-0.101
same,glycan array binding signal (z-score),[22],-0.184
same,glycan array binding signal (z-score),[23],-0.117
same,glycan array binding signal (z-score),[24],-0.177
same,glycan array binding signal (z-score),[25],-0.16
same,glycan array binding signal (z-score),[26],-0.17
same,glycan array binding signal (z-score),[27],-0.175
same,glycan array binding signal (z-score),[28],-0.135
same,glycan array binding signal (z-score),[29],-0.177
same,glycan array binding signal (z-score),[30],-0.16
